Measured values taken from a collection of fitness landscapes (doi:10.1016/j.celrep.2020.107928).
Whole data set: some 81,000 sequences, median “one-hybrid fitness for binding parS DNA” near -0.17, cut for the highest 2% near 0.51. Some of the results follow.

B1: Caulobacter ParB omega fusion; a variant is named by its letters at X, in order, B8GW30 (parent)
chain: MESVVVGEPGMSEGRRGLGRGLSALLGEVDAAPAQAPGEQLGGSREAPIEILQRNPDQPRRTFREEDLEDLSNSIREKGVLQPILVRPSPDTAGEYQIVAGERAWRAAQRAGLKTVPIMVRELDDLAVLEIGIIENVQRADLNVLEEALSYKVLMEKFERTQENIAQTIGKSXSHVANXMRLLXLPDEVQSYLVSGELTAXHARAIAAAADPVALAKQIIEGGLSVRETEALARKAPNLSAGKSKGGRPPRVKDTDTQALESDLSSVLGLDVSIDHRGSTGTLTITYATLEQLDDLCNRLTRGI

Variants of: B1
Assay: one-hybrid fitness for binding parS DNA (scaled: cognate 1, non-cognate 0); higher = stronger binding
Conditions: with parS DNA site
Outline: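 In E. coli USO, a HIS3 reporter with its site placed 19 bp from the promoter was used to select Caulobacter ParB variants randomised at four specificity codons. Growth lasted 48 hours at 37°C on histidine-free M9 containing 0.1 mM IPTG and 5 mM 3-AT. Fitness was taken as the log change in variant-to-wild-type read ratio from Illumina sequencing of pre- and post-selection plasmids, rescaled between the non-cognate and cognate sites.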

Going from KDPR to RASW, the “one-hybrid fitness for binding parS DNA” value rises from at most 0.2 to 0.21.

First: RMNG
Second: SNGC
The “one-hybrid fitness for binding parS DNA” value of the first is higher: 0.999 for the first, at most 0.2 for the second.

PAYT and FGYW cannot be ordered by “one-hybrid fitness for binding parS DNA” value: at most 0.2 for the first, at most 0.2 for the second.

VYNR and AYWR cannot be ordered by “one-hybrid fitness for binding parS DNA” value: at most 0.2 for the first, at most 0.2 for the second.

RQAV and HPLI cannot be ordered by “one-hybrid fitness for binding parS DNA” value: at most 0.2 for the first, at most 0.2 for the second.

NQHI and TYQR cannot be ordered by “one-hybrid fitness for binding parS DNA” value: at most 0.2 for the first, at most 0.2 for the second.

VQNE and SGEK cannot be ordered by “one-hybrid fitness for binding parS DNA” value: at most 0.2 for the first, at most 0.2 for the second.

ETRV and TLRR cannot be ordered by “one-hybrid fitness for binding parS DNA” value: at most 0.2 for the first, at most 0.2 for the second.

NDVY and WASL cannot be ordered by “one-hybrid fitness for binding parS DNA” value: at most 0.2 for the first, at most 0.2 for the second.

NHKP and AQQC cannot be ordered by “one-hybrid fitness for binding parS DNA” value: at most 0.2 for the first, at most 0.2 for the second.

VTET and PFTG cannot be ordered by “one-hybrid fitness for binding parS DNA” value: at most 0.2 for the first, at most 0.2 for the second.

QPAE and WPRR cannot be ordered by “one-hybrid fitness for binding parS DNA” value: at most 0.2 for the first, at most 0.2 for the second.

FCRL and TCKY cannot be ordered by “one-hybrid fitness for binding parS DNA” value: at most 0.2 for the first, at most 0.2 for the second.

LGKR and TKLC cannot be ordered by “one-hybrid fitness for binding parS DNA” value: at most 0.2 for the first, at most 0.2 for the second.

KENY and NMRG cannot be ordered by “one-hybrid fitness for binding parS DNA” value: at most 0.2 for the first, at most 0.2 for the second.

FNSR and FKKA cannot be ordered by “one-hybrid fitness for binding parS DNA” value: at most 0.2 for the first, at most 0.2 for the second.

PMCL and PMVK cannot be ordered by “one-hybrid fitness for binding parS DNA” value: at most 0.2 for the first, at most 0.2 for the second.

First: RSCF
Second: HLIT
The “one-hybrid fitness for binding parS DNA” value of the first is higher: 0.211 for the first, at most 0.2 for the second.

TQTM and QGWV cannot be ordered by “one-hybrid fitness for binding parS DNA” value: at most 0.2 for the first, at most 0.2 for the second.

IADM and ERKG cannot be ordered by “one-hybrid fitness for binding parS DNA” value: at most 0.2 for the first, at most 0.2 for the second.

VYHV and VHMM cannot be ordered by “one-hybrid fitness for binding parS DNA” value: at most 0.2 for the first, at most 0.2 for the second.

AGST and FSGG cannot be ordered by “one-hybrid fitness for binding parS DNA” value: at most 0.2 for the first, at most 0.2 for the second.

NSKF and QMSK cannot be ordered by “one-hybrid fitness for binding parS DNA” value: at most 0.2 for the first, at most 0.2 for the second.

TTNK and ALFR cannot be ordered by “one-hybrid fitness for binding parS DNA” value: at most 0.2 for the first, at most 0.2 for the second.

IKRR and PWMC cannot be ordered by “one-hybrid fitness for binding parS DNA” value: at most 0.2 for the first, at most 0.2 for the second.

First: HAHG
Second: RARS
The “one-hybrid fitness for binding parS DNA” value of the first is lower: at most 0.2 for the first, 0.908 for the second.

LNTH and PCRV cannot be ordered by “one-hybrid fitness for binding parS DNA” value: at most 0.2 for the first, at most 0.2 for the second.

TPPV and IATF cannot be ordered by “one-hybrid fitness for binding parS DNA” value: at most 0.2 for the first, at most 0.2 for the second.

SYPE and NMAS cannot be ordered by “one-hybrid fitness for binding parS DNA” value: at most 0.2 for the first, at most 0.2 for the second.

CGMR and DLNP cannot be ordered by “one-hybrid fitness for binding parS DNA” value: at most 0.2 for the first, at most 0.2 for the second.

KMNK and SEDV cannot be ordered by “one-hybrid fitness for binding parS DNA” value: at most 0.2 for the first, at most 0.2 for the second.

PCWS and TIPR cannot be ordered by “one-hybrid fitness for binding parS DNA” value: at most 0.2 for the first, at most 0.2 for the second.

First: RYRW
Second: RRWC
The “one-hybrid fitness for binding parS DNA” value of the first is lower: at most 0.2 for the first, 0.739 for the second.

TYTM and FRMT cannot be ordered by “one-hybrid fitness for binding parS DNA” value: at most 0.2 for the first, at most 0.2 for the second.

QLKH and NHLD cannot be ordered by “one-hybrid fitness for binding parS DNA” value: at most 0.2 for the first, at most 0.2 for the second.

FGDS and NYQS cannot be ordered by “one-hybrid fitness for binding parS DNA” value: at most 0.2 for the first, at most 0.2 for the second.

QNGG and AAMW cannot be ordered by “one-hybrid fitness for binding parS DNA” value: at most 0.2 for the first, at most 0.2 for the second.

Compared with RKAM, TSTL is lower in “one-hybrid fitness for binding parS DNA” value: 0.264 for the first, at most 0.2 for the second.

ALEN and RPRS cannot be ordered by “one-hybrid fitness for binding parS DNA” value: at most 0.2 for the first, at most 0.2 for the second.

KWAG and HHHC cannot be ordered by “one-hybrid fitness for binding parS DNA” value: at most 0.2 for the first, at most 0.2 for the second.

LFRM and WYCE cannot be ordered by “one-hybrid fitness for binding parS DNA” value: at most 0.2 for the first, at most 0.2 for the second.

STLI and YKRT cannot be ordered by “one-hybrid fitness for binding parS DNA” value: at most 0.2 for the first, at most 0.2 for the second.

Going from QKPN to HRKC, the “one-hybrid fitness for binding parS DNA” value rises from at most 0.2 to 0.365.

MADP and NIWV cannot be ordered by “one-hybrid fitness for binding parS DNA” value: at most 0.2 for the first, at most 0.2 for the second.

ILLC and SFCD cannot be ordered by “one-hybrid fitness for binding parS DNA” value: at most 0.2 for the first, at most 0.2 for the second.

CHEL and KQVR cannot be ordered by “one-hybrid fitness for binding parS DNA” value: at most 0.2 for the first, at most 0.2 for the second.

RIPQ and DKVG cannot be ordered by “one-hybrid fitness for binding parS DNA” value: at most 0.2 for the first, at most 0.2 for the second.

YVPC and VKAG cannot be ordered by “one-hybrid fitness for binding parS DNA” value: at most 0.2 for the first, at most 0.2 for the second.

RWQY and QKTR cannot be ordered by “one-hybrid fitness for binding parS DNA” value: at most 0.2 for the first, at most 0.2 for the second.

First: RCQC
Second: GLRC
The “one-hybrid fitness for binding parS DNA” value of the first is higher: 0.994 for the first, at most 0.2 for the second.

HHEI and NNQR cannot be ordered by “one-hybrid fitness for binding parS DNA” value: at most 0.2 for the first, at most 0.2 for the second.

WRQS and THAE cannot be ordered by “one-hybrid fitness for binding parS DNA” value: at most 0.2 for the first, at most 0.2 for the second.

Going from RVAM to QIEK, the “one-hybrid fitness for binding parS DNA” value falls from 0.329 to at most 0.2.

VLNC and YAYG cannot be ordered by “one-hybrid fitness for binding parS DNA” value: at most 0.2 for the first, at most 0.2 for the second.

HFCT and QWWC cannot be ordered by “one-hybrid fitness for binding parS DNA” value: at most 0.2 for the first, at most 0.2 for the second.

VPYC and RCDE cannot be ordered by “one-hybrid fitness for binding parS DNA” value: at most 0.2 for the first, at most 0.2 for the second.

First: TQNA
Second: ESGF
The “one-hybrid fitness for binding parS DNA” value of the first is lower: at most 0.2 for the first, 0.259 for the second.

RYKR and PFNN cannot be ordered by “one-hybrid fitness for binding parS DNA” value: at most 0.2 for the first, at most 0.2 for the second.

Going from RQHG to LRFM, the “one-hybrid fitness for binding parS DNA” value falls from 1.01 to at most 0.2.

NHTF and LPSP cannot be ordered by “one-hybrid fitness for binding parS DNA” value: at most 0.2 for the first, at most 0.2 for the second.

QHPW and VGFC cannot be ordered by “one-hybrid fitness for binding parS DNA” value: at most 0.2 for the first, at most 0.2 for the second.

First: RMCT
Second: DDGC
The “one-hybrid fitness for binding parS DNA” value of the first is higher: 0.888 for the first, at most 0.2 for the second.

Compared with RYMG, CWLS is lower in “one-hybrid fitness for binding parS DNA” value: 0.971 for the first, at most 0.2 for the second.

ADVL and DAVG cannot be ordered by “one-hybrid fitness for binding parS DNA” value: at most 0.2 for the first, at most 0.2 for the second.

NSHV and NFLD cannot be ordered by “one-hybrid fitness for binding parS DNA” value: at most 0.2 for the first, at most 0.2 for the second.

HISI and DMAL cannot be ordered by “one-hybrid fitness for binding parS DNA” value: at most 0.2 for the first, at most 0.2 for the second.

TLVV and MLDR cannot be ordered by “one-hybrid fitness for binding parS DNA” value: at most 0.2 for the first, at most 0.2 for the second.

DSWT and WATV cannot be ordered by “one-hybrid fitness for binding parS DNA” value: at most 0.2 for the first, at most 0.2 for the second.

ALAF and HHHV cannot be ordered by “one-hybrid fitness for binding parS DNA” value: at most 0.2 for the first, at most 0.2 for the second.

VVPS and RQYP cannot be ordered by “one-hybrid fitness for binding parS DNA” value: at most 0.2 for the first, at most 0.2 for the second.

SRKS and QKWD cannot be ordered by “one-hybrid fitness for binding parS DNA” value: at most 0.2 for the first, at most 0.2 for the second.

VIRY and VMPA cannot be ordered by “one-hybrid fitness for binding parS DNA” value: at most 0.2 for the first, at most 0.2 for the second.

PAPV and SYLS cannot be ordered by “one-hybrid fitness for binding parS DNA” value: at most 0.2 for the first, at most 0.2 for the second.

MYPF and IVIG cannot be ordered by “one-hybrid fitness for binding parS DNA” value: at most 0.2 for the first, at most 0.2 for the second.

QQHY and DDGP cannot be ordered by “one-hybrid fitness for binding parS DNA” value: at most 0.2 for the first, at most 0.2 for the second.

KCLS and CKAK cannot be ordered by “one-hybrid fitness for binding parS DNA” value: at most 0.2 for the first, at most 0.2 for the second.

With QGTQ the “one-hybrid fitness for binding parS DNA” value was at most 0.2.
